Reference: PubChem BioAssay AID485290 (National Center for Advancing Translational Sciences (NCATS), 2010)
Screen size: about 350,000 compounds; about 990 (0.28%) were called active. This list was built around the results that the source calls inconclusive (neither active nor inactive); the mix of calls is not that of the screen. Calls come from the whole dose curve; as a rule, active = well fitted inhibition curve with a large enough effect; inconclusive = small, poorly fitted or top-dose-only effect; inactive = no such curve, though single readings can be large or run the other way. Potencies beside an inconclusive call are fits to weak or partial responses and may not hold up.

Target: Tyrosyl-DNA phosphodiesterase 1 (Homo sapiens) (UniProt Q9NUW8)
Test: qHTS Assay for Inhibitors of Tyrosyl-DNA Phosphodiesterase (TDP1); note: nearly all actives have a fitted effect of over 40% in size
Settings: recombinant TDP1, AlphaScreen DNA substrate cleavage; activity change, negative = inhibition: at 130 µM (top of the series) unless noted
Method in brief: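 E. coli-derived human Tdp1, 1 nM final. Cpd preinc 15 min RT; substrate 15 nM final, 5 min RT; AS bead mix 10 ug/ml final, 10 min RT. Signal loss = tyrosine-FITC cleavage. No-enzyme wells = max signal.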
% is set by controls: 0 for no effect and ±100 for the full control effect; potency is the fitted concentration of half-maximal effect; tags give direction and shape of the fitted curve.

UniProt Q9NUW8, sequence (Q9NUW8 whole entry, looked up): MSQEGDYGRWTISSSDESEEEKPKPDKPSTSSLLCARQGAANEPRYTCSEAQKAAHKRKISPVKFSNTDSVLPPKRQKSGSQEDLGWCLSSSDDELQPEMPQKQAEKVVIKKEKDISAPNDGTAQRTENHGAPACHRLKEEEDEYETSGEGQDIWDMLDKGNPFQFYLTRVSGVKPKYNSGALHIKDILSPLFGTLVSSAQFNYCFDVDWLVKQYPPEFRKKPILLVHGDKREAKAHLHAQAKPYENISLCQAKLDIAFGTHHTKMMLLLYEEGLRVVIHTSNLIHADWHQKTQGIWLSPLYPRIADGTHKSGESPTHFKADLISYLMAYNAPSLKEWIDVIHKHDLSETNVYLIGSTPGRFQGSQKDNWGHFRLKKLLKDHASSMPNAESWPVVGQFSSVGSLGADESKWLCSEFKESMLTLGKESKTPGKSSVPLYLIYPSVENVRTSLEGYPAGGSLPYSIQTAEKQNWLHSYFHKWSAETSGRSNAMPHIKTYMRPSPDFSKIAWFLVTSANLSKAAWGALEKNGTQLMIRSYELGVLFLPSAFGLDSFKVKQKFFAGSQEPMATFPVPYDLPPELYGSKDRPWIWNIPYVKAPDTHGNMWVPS

Row | Structure (SMILES) | Potency | activity change, negative = inhibition
1 | CC(C#Cc1c([C@@H](C)Oc2ccccc2)nnn1Cc1ccccc1)Oc1ccccc1 (stereo partly drawn) | inconclusive: 15.8 µM [inhibitor, partial curve] | 
2 | N/C(Cc1cccs1)=N\OC(=O)COc1ccc(Br)cc1 | inconclusive: 28.2 µM [inhibitor, full curve] | 
3 | Cc1ccc2nc(N/N=C\c3ccc([N+](=O)[O-])o3)nc(-c3ccccc3)c2c1 |  | inactive: 0%
4 | Cc1nnc(SCc2nc3sc(C(=O)O)c(C)c3c(=O)[nH]2)s1 | inconclusive: 35.5 µM [inhibitor, full curve] | 
5 | COc1ccc(N2Cc3cccc(C(=O)N4CCN(C(=O)c5ccco5)CC4)c3C2=O)cc1 | active: 11.2 µM | 
6 | N#C/C(=N\Nc1ccc(Cl)cc1)C(=O)c1ccccc1 |  | inactive: 9.76%
7 | COc1ccc(CC(=O)OCC(=O)N2CCN(S(=O)(=O)c3ccc(C)cc3C)CC2)cc1 |  | inactive: 0.576%
8 | Cc1ccc(C(=O)NCc2ccco2)cc1 | active: 3.16 µM | 
9 | COc1cc(OC)cc(C2=Nn3c(nnc3-c3cccc(OC)c3)SC2)c1 |  | inactive: 2.06%
10 | CC(C)(C)C(=O)[C@@H]1[C@@H]2C(=O)N(Cc3ccccc3)C(=O)[C@@H]2[C@H]2c3ccccc3C=CN12 | active: 70.8 µM | 
11 | COc1ccccc1C(=O)Nc1ccc(Br)cc1C |  | inactive: -6.06%
12 | CCc1ccc(NC(=O)COC(=O)/C=C/c2ccco2)cc1 | active: 25.1 µM | 
13 | Cc1ccc(S(=O)(=O)c2nc(-c3ccccc3)oc2N2CCCC2)cc1 | inconclusive: 63.1 µM [inhibitor, partial curve] | 
14 | COc1ccccc1CNC(=O)c1oc2ccc(S(=O)(=O)N3CCOCC3)cc2c1C | inconclusive: 89.1 µM [inhibitor, single point] | 
15 | Cc1csc(N/N=C/c2ccc(O)c([N+](=O)[O-])c2)n1 | inconclusive: 50.1 µM [inhibitor, partial curve] | 
16 | Cn1c(-c2ccc3nc(N)sc3c2)nc2cc(N)ccc21 | inconclusive: 100 µM [inhibitor, single point] | 
17 | Cc1cc(C(F)F)n2nc(C(=O)Nc3sc4c(c3C(N)=O)CCC4)nc2n1 | inconclusive: 44.7 µM [inhibitor, partial curve] | 
18 | Cc1cc(NC(=O)c2cc(-c3ccccn3)nc3c(Cl)cccc23)no1 |  | inactive: -0.43%
19 | Cc1c(C(=O)O)sc2nc(/C=C/c3ccccc3OC(F)F)[nH]c(=O)c12 | active: 70.8 µM | 
20 | Cc1ccc(-c2nc3c(c(=O)[nH]c(=O)n3Cc3ccccc3)n2C)o1 | active: 39.8 µM | 
21 | Cc1ccc(C)n1-c1ccc(C(=O)O)cc1 | active: 7.94 µM | 
22 | Brc1ccc(C2CC(c3ccccc3)=Nc3ccccc3N2)cc1 (stereo not drawn) | inconclusive: 35.5 µM [inhibitor, single point] | 
23 | COc1ccc(CCC(=O)Nc2nc3ccccc3[nH]2)cc1 |  | inactive: -1.12%
24 | Cc1sc(NC(=O)C2CC=CCC2C(=O)O)c(C(=O)OC(C)C)c1C (stereo not drawn) | inconclusive: 89.1 µM [inhibitor, partial curve, poor fit] | 
25 | COc1ccc(Cn2nnnc2C(c2cc3cccc(C)c3[nH]c2=O)N2CCOCC2)cc1 (stereo not drawn) |  | inactive: 1.96%

Row | Structure (SMILES) | Potency | activity change, negative = inhibition
26 | CC1(OC(=O)c2ccco2)C(=O)C=C2C=C(c3ccsc3)OC=C2C1=O (stereo not drawn) | inconclusive: 28.2 µM [inhibitor, single point] | 
27 | CCc1sc(C(=O)Nc2ncccc2O)cc1C | inconclusive: 14.1 µM [inhibitor, full curve] | 
28 | O=C(N/N=C/c1cc([N+](=O)[O-])ccc1O)c1cccc(NC(=O)c2cccc(Cl)c2)c1 | active: 56.2 µM | 
29 | O=C(NC(Cc1ccccc1)C(=O)O)/C(=C\c1ccco1)NC(=O)c1ccc(Br)cc1 (stereo not drawn) |  | inactive: -2.86%
30 | Oc1ccccc1/C=N/c1c(-c2ccco2)nc2ccccn12 | inconclusive: 17.8 µM [inhibitor, full curve] | 
31 | Cc1ccc(-c2[nH]ncc2/C=N/n2c(C)nc3ccccc3c2=O)cc1 | inconclusive: 50.1 µM [inhibitor, partial curve] | 
32 | COc1cccc(-c2cc3nc(-c4ccccc4)cc(N4CCC5(CC4)OCCO5)n3n2)c1 | inconclusive: 4.47 µM [inhibitor, partial curve, poor fit] | 
33 | O=C(CCCN1C(=O)NC2(CCCC2)C1=O)N1CCN(S(=O)(=O)c2ccccc2)CC1 |  | inactive: -0.238%
34 | O=C(C1Cc2ccccc2CN1C(=O)c1ccccc1)N1CCN(c2ccccc2)CC1 (stereo not drawn) | active: 35.5 µM | 
35 | Cc1ccc(OCC(=O)c2c(N)n(C)c(=O)n(C)c2=O)c([N+](=O)[O-])n1 | active: 3.16 µM | 
36 | O=C(NN(C(=O)c1ccccc1)c1ccccc1)c1ccccc1 | active: 70.8 µM | 
37 | C/C(CCN1CCc2nc(-c3ccccc3)c(-c3ccccc3)cc2C1)=N\OC[C@@H](O)[C@@H]1O[C@@H]2OC(C)(C)O[C@@H]2[C@H]1O |  | inactive: 3.7% [at 21 µM]
38 | CC(C)Cc1nc(N2CCN(C(=O)c3ccco3)CC2)c(C#N)c2c1CCCC2 |  | inactive: 7.06%
39 | COc1cc(/C=C/C(=O)O)cc(S(=O)(=O)NNC(=O)c2cc(C)oc2C)c1OC | active: 15.8 µM | 
40 | CN1CC(O)C2=CC(=O)C(=O)C=C21 (stereo not drawn) | inconclusive: 0.224 µM [inhibitor, full curve] | 
41 | O=C(OCc1cc(=O)n2c(n1)sc1ccccc12)c1ccc2c(=O)n3c(nc2c1)CCC3 | active: 50.1 µM | 
42 | COc1cc(C(=O)Nc2nnc(CC(=O)NCc3ccccc3)s2)cc(OC)c1OC |  | inactive: 2.04%
43 | Nc1ccc2c(c1Cl)C(=O)c1ccc(N)c(Cl)c1C2=O | active: 3.55 µM | 
44 | O=C(O)COc1ccccc1/C=C1\SC(=S)N(/N=C/c2ccccc2O)C1=O | inconclusive: 56.2 µM [inhibitor, partial curve] | 
45 | O=S(=O)(O)c1ccc2c(N=Nc3ccc(S(=O)(=O)O)c4ccccc34)c(O)c(S(=O)(=O)O)cc2c1 | inconclusive: 44.7 µM [inhibitor, single point] | 
46 | O=S(=O)(Nc1ncccn1)c1ccc(NC(=S)Nc2cccc(Cl)c2)cc1 |  | inactive: 2.56%
47 | O=C(COC(=O)c1c2ccccc2cc2ccccc12)Nc1ncc(C(F)(F)F)cc1Cl | inconclusive: 31.6 µM [inhibitor, single point] | 
48 | COc1cc(C(=O)OCC(=O)N2CCCC2=O)cc(OC)c1C | inconclusive: 15.8 µM [inhibitor, full curve] | 
49 | COc1cccc2c(SCC(=O)N/N=C/c3ccc(O)c(O)c3)cc(C)nc12 | inconclusive: 22.4 µM [inhibitor, partial curve] | 
50 | COc1ccccc1N1CCN(C(=O)CSc2nc3ccccc3nc2Cc2ccc(F)cc2)CC1 |  | inactive: 2.7%

Row | Structure (SMILES) | Potency | activity change, negative = inhibition
51 | O=C(Cn1cnc2c(OCc3ccccc3)ncnc21)NCc1ccccc1 |  | inactive: 0.242%
52 | COc1cccc2c1C(=O)c1ccc3ccccc3c1C2=O |  | inactive: 3.65%
53 | O=C(/C=C/c1cccs1)Nc1scc(-c2ccccc2)c1C(=O)O | active: 31.6 µM | 
54 | COc1ccc(S(=O)(=O)N2CCCCCC2)cc1N(C)S(=O)(=O)c1ccc(Cl)cc1 |  | inactive: 4.02%
55 | Cn1c(COc2ccccc2)nnc1SCC(=O)c1cccc([N+](=O)[O-])c1 | inconclusive: 7.08 µM [inhibitor, full curve] | 
56 | COc1ccc2[nH]c3c(=O)n(Cc4ccc(C(=O)NCC5CCCO5)cc4)c(=S)[nH]c3c2c1 (stereo not drawn) | inconclusive: 50.1 µM [inhibitor, partial curve] | 
57 | COc1ccccc1/C=C\C(=O)NCC(=O)N/N=C/c1cccc(OC)c1O | inconclusive: 70.8 µM [inhibitor, partial curve] | 
58 | Cc1ccc(-c2cc(C(F)(F)F)n3nc(C(=O)Nc4sc5c(c4C#N)CCC(C)C5)cc3n2)cc1 (stereo not drawn) |  | inactive: 4.52%
59 | CCOc1cccc(OCCNC2CCCC2)c1 | inconclusive: 25.1 µM [inhibitor, partial curve] | 
60 | O=C(NC1CC(=O)N(c2ccc(F)cc2)C1)c1ccc(S(=O)(=O)N2CCOCC2)cc1 (stereo not drawn) | inconclusive: 39.8 µM [inhibitor, single point] | 
61 | NS(=O)(=O)c1ccc(CCNC(=O)CN2CCN(Cc3cccc(C(F)(F)F)c3)CC2)cc1 |  | inactive: 12.3%
62 | CCOc1cc2[nH]c(=O)n(CCCCCC(=O)NC3CCCC3)c(=O)c2cc1OCC |  | inactive: 0.446%
63 | CN1CCN(CC(O)(c2ccc(Cl)cc2)c2ccc(Cl)cc2)CC1 |  | inactive: 5.88%
64 | COc1ccccc1OCCCOc1ccc(C)cc1Br | inconclusive: 22.4 µM [inhibitor, partial curve, poor fit] | 
65 | COc1ccc(CCn2c(C3CCCCC3)nc3c(c(=O)c4ccccc4n3C)c2=O)cc1OC |  | inactive: 0%
66 | Cc1ccc(C(=O)O)cc1-c1ccc(/C=C2\SC(=O)N(CC(=O)Nc3ccc4c(c3)OCO4)C2=O)o1 | active: 10 µM | 
67 | COC(=O)C1=CN(Cc2cccs2)C=C(C(=O)OC)C1c1ccc(OC)cc1OC | inconclusive: 17.8 µM [inhibitor, full curve, poor fit] | 
68 | Cc1nn(CCc2nc(-c3ccco3)cs2)c2[nH]c(=O)cc(C(F)(F)F)c12 | inconclusive: 17.8 µM [inhibitor, full curve] | 
69 | COc1ccccc1N1CCN(C(=O)c2cc3c(=O)n(Cc4cccs4)ccc3nc2C)CC1 |  | inactive: -0.649%
70 | COc1cc(OC)c(-n2cc(-c3ccc(Cl)cc3)[nH]c2=O)cc1Cl | inconclusive: 28.2 µM [inhibitor, single point] | 
71 | COc1ccccc1NS(=O)(=O)c1cc(C(=O)N2CCCCCCC2)ccc1C | inconclusive: 39.8 µM [inhibitor, single point] | 
72 | COc1ccc(C2Nc3ccccc3C(=O)N2CCO)cc1COc1ccc(NC(C)=O)cc1 (stereo not drawn) | inconclusive: 89.1 µM [inhibitor, single point] | 
73 | CC(C)(C)n1cn[nH]c1=S | inconclusive: 1.78 µM [inhibitor, full curve, poor fit] | 
